Measured values as given in PubChem BioAssay AID1345082 (National Center for Advancing Translational Sciences (NCATS), 2018).
Among all 94,000 compounds or so, about 4,000 (4.3%) were called active. Inconclusive means that the source gave no clear call. Such entries were picked first, then a sample of the others. Calls come from the whole dose curve; as a rule, active = well fitted inhibition curve with a large enough effect; inconclusive = small, poorly fitted or top-dose-only effect; inactive = no such curve, though single readings can be large or run the other way. Potencies of inconclusive entries are doubtful fits and often do not repeat.

assay: Cytotoxic Profiling in NIH 3T3 Cell Line of Diverse Libraries Using Quantitative High-Throughput Screening; details: NIH 3T3 viability, CellTiter-Glo ATP luminescence, 48-72 h; activity change, negative = cytotoxicity: at 96.7 µM (top of the series) unless noted; series mostly up to 96.7 µM; note: nearly all actives have a fitted effect of over 55% in size
Outline: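 Viability of NIH 3T3 cells after 48 or 72 hr compound treatment at 37 °C was assessed by CellTiter-Glo, with luminescence imaged following a 10 min room-temperature step.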
% is set by controls: 0 for no effect and ±100 for the full control effect; potency is the fitted concentration of half-maximal effect; tags give direction and shape of the fitted curve.

Row | SMILES | Potency | activity change, negative = cytotoxicity
1 | CCC1Oc2ccc(NC(=O)c3ccc4c(c3)OCO4)cc2CN(Cc2ccc(F)cc2)C1=O (centres undefined) | inconclusive: 44.7 µM [inhibitor, partial curve, poor fit] | 
2 | CCN(CC)Cc1cnc2c(C(=O)Nc3ccc(C)cc3Cl)cnn2c1 |  | inactive: -6.13%
3 | O=c1ncn(Cc2ccccc2)c2ccc(-c3ccc(O)c(F)c3)nc12 | inconclusive: 56.2 µM [inhibitor, partial curve, poor fit] | 
4 | Cc1ccc(NC(=O)C2CCN(c3cc(C(F)(F)F)ncn3)CC2)c(C)c1 |  | inactive: -17.1%
5 | O=C(NC1CCN(c2cc(-c3ccc(Cl)cc3)[nH]n2)C1)c1ccc2cc[nH]c2c1 (centres undefined) | inconclusive: 35.5 µM [inhibitor, partial curve, poor fit] | 
6 | CC(C)(C)c1nnc2ccc(C(=O)NCc3ccccc3)cn12 | inconclusive: 56.2 µM [inhibitor, partial curve, poor fit] | 
7 | CC(=O)N1CC2(CCCCN2Cc2cccc(C(N)=O)c2)Cc2ccccc21 (centres undefined) |  | inactive: -21.6%
8 | CC(C)(O)C#Cc1ccc(C(=O)N2CCOCC2CC(=O)O)o1 (centres undefined) |  | inactive: 1.53%
9 | CNC(=O)c1cc(C)nc2onc(C3CCCN3C(=O)c3ccccc3Cl)c12 (centres undefined) |  | inactive: -22.3%
10 | Cn1nc(C2CC2)cc1NC(=O)c1ccc(C(F)(F)F)cc1 | inconclusive: 89.1 µM [inhibitor, partial curve] | 
11 | O=C1CCN(C(=O)[C@@H]2CCCN2Cc2cccc(F)c2)CCCCCCN1 |  | inactive: -9.28%
12 | COc1ccc(-c2noc(-c3cccn3CC(=O)N3CCN(c4ccccc4F)CC3)n2)cc1F | inconclusive: 10 µM [inhibitor, partial curve, poor fit] | 
13 | CC(C)C(=O)N1CCn2c(nnc2C2CCN(Cc3ccc(F)cc3F)C2)C1 (centres undefined) |  | inactive: -19.5%
14 | COc1ccc(Nc2ccnc(N3CCN(C(=O)C4CCCC4)CC3)n2)cc1 | inconclusive: 31.6 µM [inhibitor, partial curve, poor fit] | 
15 | COc1ccc(CCC(=O)N2CC[C@@H]3COCCN(Cc4ccncc4)[C@@H]3C2)cc1 | inconclusive: 50.1 µM [inhibitor, single point] | 
16 | Cc1ccc(CNC(=O)CCC2CCCN(S(=O)(=O)c3ccccc3F)C2)o1 (centres undefined) |  | inactive: -24%
17 | CC(=O)Nc1ccc(CN2CCCC3(COc4ccccc4C(=O)N3)C2)cc1 (centres undefined) | inconclusive: 50.1 µM [inhibitor, partial curve, poor fit] | 
18 | Cc1ccc(C(=O)N2CCC(C(NC(=O)c3cccs3)C(=O)NC3CC3)CC2)cc1 (centres undefined) |  | inactive: -11.8%
19 | O=C(NCc1cccc(Cl)c1)c1ccc2nnc(-c3ccc(Cl)cc3)n2c1 | inconclusive: 44.7 µM [inhibitor, partial curve, poor fit] | 
